{"sequences": {"note": "Chains of the proteins cited; added tags and fusions are not shown.", "UniProt Q60929": "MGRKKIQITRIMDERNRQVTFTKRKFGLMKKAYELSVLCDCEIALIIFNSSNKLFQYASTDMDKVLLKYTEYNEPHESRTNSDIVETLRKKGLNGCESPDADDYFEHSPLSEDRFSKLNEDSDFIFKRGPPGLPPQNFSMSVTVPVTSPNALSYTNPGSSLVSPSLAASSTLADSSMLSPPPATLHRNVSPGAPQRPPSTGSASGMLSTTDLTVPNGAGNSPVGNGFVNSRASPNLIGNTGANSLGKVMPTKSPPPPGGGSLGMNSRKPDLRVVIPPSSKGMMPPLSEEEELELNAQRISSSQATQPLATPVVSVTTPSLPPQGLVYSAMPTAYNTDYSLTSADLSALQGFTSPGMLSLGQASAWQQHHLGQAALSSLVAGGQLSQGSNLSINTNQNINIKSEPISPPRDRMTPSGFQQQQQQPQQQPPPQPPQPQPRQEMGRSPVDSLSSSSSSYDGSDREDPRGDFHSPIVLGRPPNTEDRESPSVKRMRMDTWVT", "UniProt Q6NZM9": "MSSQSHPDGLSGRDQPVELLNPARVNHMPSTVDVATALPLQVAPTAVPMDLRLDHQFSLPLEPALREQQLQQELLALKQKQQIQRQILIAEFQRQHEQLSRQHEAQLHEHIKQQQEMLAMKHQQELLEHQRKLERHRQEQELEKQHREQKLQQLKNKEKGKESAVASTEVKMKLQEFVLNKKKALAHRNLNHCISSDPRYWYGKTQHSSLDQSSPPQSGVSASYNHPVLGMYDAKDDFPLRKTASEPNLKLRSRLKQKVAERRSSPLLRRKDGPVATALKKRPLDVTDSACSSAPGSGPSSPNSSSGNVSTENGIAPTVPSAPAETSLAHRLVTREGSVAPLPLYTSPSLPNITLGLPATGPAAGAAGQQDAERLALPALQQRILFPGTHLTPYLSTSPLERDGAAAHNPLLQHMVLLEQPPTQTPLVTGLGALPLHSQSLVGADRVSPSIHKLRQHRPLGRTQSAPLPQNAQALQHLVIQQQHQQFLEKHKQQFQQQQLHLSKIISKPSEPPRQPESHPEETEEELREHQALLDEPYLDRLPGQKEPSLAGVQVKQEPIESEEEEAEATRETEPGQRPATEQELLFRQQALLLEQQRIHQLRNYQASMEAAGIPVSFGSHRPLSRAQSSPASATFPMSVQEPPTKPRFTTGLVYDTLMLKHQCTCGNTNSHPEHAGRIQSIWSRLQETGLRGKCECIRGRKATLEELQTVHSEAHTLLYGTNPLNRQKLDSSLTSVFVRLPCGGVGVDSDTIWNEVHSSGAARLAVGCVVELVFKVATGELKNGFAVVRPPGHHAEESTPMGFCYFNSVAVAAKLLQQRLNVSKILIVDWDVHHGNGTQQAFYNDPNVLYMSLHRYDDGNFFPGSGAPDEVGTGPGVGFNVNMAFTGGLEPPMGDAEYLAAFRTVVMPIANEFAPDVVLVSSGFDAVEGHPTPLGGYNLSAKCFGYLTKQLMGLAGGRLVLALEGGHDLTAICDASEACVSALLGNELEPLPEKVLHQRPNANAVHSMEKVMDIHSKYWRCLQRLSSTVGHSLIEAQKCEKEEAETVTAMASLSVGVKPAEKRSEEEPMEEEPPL", "UniProt Q9UKV0": "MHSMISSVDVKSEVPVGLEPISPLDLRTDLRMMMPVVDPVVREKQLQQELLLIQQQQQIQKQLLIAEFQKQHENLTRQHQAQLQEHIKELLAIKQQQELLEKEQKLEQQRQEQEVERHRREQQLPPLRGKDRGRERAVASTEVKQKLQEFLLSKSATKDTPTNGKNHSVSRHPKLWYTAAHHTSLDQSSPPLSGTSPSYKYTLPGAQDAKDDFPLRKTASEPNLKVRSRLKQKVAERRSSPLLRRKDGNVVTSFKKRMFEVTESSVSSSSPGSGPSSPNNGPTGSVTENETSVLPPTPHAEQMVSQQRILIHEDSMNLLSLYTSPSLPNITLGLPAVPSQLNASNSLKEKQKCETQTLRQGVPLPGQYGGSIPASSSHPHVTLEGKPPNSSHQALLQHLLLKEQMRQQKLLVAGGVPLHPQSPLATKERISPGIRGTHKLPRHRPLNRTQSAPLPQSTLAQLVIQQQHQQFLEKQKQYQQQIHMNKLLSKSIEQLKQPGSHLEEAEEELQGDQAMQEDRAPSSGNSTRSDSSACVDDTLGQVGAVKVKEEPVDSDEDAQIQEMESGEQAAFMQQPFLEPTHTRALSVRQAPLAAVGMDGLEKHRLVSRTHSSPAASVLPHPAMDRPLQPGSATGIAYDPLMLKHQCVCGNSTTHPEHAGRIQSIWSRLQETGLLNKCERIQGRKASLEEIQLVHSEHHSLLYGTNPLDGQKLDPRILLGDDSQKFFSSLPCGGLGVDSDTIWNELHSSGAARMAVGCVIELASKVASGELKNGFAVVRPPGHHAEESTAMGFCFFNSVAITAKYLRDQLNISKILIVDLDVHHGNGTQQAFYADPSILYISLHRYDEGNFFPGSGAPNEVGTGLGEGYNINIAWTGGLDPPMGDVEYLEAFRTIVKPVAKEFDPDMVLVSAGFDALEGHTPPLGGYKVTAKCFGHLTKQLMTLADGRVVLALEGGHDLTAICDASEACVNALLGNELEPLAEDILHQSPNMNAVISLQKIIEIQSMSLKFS"}, "source": "paper PMC6835202", "key": {"[1]": {"biological_target": "MEF2a, endogenous in mouse ventricular samples (mouse (endogenous in ventricular samples)) (UniProt Q60929)", "test": "co-IP; mouse ventricular samples lysed in IP lysis buffer; anti-MEF2a antibodies (or IgG) with protein A/G beads overnight; Western blotting"}, "[2]": {"biological_target": "NCoR1-flag expressed from lentivirus in NRVMs (UniProt Q60974)", "test": "co-IP; NRVMs infected with NCoR1-flag lentivirus and then HDAC4, HDAC5-GFP or HDAC9 adenovirus; MEF2a not overexpressed"}, "[3]": {"biological_target": "NCoR1-flag expressed from lentivirus in NRVMs (UniProt Q60974)", "test": "co-IP; NRVMs infected with NCoR1-flag lentivirus and then MEF2a-HA lentivirus and HDAC5-GFP adenovirus"}, "[4]": {"biological_target": "full-length NCoR1-Flag (nuclear receptor corepressor 1) (UniProt Q60974)", "test": "co-IP; HEK293FT cells transfected with NCoR1-Flag (full length or truncated) and MEF2a-HA (full length or truncated); Western blotting"}, "[5]": {"biological_target": "T1, NCoR1 receptor interaction domains (RIDs) (1939-2453)-Flag (UniProt Q60974)", "T1 sequence": "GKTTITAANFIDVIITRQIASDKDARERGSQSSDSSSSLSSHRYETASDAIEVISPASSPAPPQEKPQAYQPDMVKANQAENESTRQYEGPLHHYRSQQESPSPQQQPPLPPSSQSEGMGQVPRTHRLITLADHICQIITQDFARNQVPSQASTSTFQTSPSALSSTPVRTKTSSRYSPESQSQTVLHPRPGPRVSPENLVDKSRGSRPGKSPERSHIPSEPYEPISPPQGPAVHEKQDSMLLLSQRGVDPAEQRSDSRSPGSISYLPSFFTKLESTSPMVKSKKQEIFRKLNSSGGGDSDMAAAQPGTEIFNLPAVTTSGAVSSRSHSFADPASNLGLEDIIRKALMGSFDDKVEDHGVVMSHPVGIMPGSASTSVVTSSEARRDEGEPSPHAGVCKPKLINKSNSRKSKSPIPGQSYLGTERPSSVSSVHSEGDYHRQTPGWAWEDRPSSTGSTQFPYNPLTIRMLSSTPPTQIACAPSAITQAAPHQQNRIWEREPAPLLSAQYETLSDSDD", "test": "co-IP; HEK293FT cells transfected with NCoR1-Flag (full length or truncated) and MEF2a-HA (full length or truncated); Western blotting"}}, "note": "No constants are given. Whether binding was seen depends on the method and setting. In cells and extracts the contact can be indirect. Some results given as binding are weak or reduced against the parent protein; the word gives no strength. For part of these data: Sequences can lack the tags named with a protein.", "data": [{"substance": "HDAC4, endogenous in mouse ventricular samples (from UniProt Q6NZM9 1-1076)", "values": [{"measurement": "binding", "setting": "[1]", "result": "binds"}]}, {"substance": "HDAC9 expressed from adenovirus in NRVMs (from UniProt Q9UKV0 1-1011)", "values": [{"measurement": "binding", "setting": "[2]", "result": "no binding"}]}, {"substance": "MEF2a-HA expressed from lentivirus in NRVMs (from UniProt Q60929 1-498)", "values": [{"measurement": "binding", "setting": "[3]", "result": "binds"}]}, {"substance": "NCoR1, endogenous in mouse ventricular samples (from UniProt Q60974 1-2453)", "values": [{"measurement": "binding", "setting": "[1]", "result": "binds"}]}, {"substance": "full-length MEF2a-HA (myocyte enhancer factor 2a) (from UniProt Q60929 1-498)", "values": [{"measurement": "binding", "setting": "[4]", "result": "binds"}, {"measurement": "binding", "setting": "[5]", "result": "binds"}]}]}
